Data as given in patent publication US20240199762A1 (PHILOGEN S P A, published 2024).

Molecular target: T1, human FAP-ECD (extracellular domain) recombinant fragment containing a C-terminal His6 tag (human, UniProt Q12884 26-760, randomly biotinylated with NHS ester-activated biotin (as used on the SA chip and Streptawell plates))
T1 construct: also called biotinylated human FAP-ECD; biotinylated human FAP
T1 sequence: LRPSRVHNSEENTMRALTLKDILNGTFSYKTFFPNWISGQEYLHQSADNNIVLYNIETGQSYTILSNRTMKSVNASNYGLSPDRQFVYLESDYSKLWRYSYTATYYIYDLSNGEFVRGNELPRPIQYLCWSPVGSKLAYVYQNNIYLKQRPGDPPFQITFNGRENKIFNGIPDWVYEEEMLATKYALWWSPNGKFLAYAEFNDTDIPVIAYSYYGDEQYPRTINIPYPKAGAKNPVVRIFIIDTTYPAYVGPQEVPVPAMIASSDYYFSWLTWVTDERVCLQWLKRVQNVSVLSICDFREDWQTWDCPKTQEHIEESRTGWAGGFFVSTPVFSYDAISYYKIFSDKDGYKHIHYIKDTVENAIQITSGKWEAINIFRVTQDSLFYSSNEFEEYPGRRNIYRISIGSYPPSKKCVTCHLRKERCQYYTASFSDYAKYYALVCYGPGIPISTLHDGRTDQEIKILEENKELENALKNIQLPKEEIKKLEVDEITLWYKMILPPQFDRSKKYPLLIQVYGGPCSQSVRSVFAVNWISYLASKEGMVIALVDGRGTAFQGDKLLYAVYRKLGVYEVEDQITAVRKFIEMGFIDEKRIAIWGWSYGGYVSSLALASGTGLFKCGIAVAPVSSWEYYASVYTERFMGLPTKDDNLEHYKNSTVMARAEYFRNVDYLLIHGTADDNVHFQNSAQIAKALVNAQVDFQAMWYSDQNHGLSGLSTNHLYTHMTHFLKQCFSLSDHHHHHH
Experiment: SPR, BIAcore X100, biotinylated human FAP-ECD on SA chip (1500 RU), monomeric scFv injected
Method: Affinity measurements of the C5 and 7NP2 scFv antibodies were performed by Surface Plasmon Resonance using BIAcore X100 instrument with a biotinylated human FAP-ECD coated SA chip. A final coating of 1500 RU was achieved.
Samples were injected at a concentration of […], 450 nM and 225 nM for the C5 scFv and of 1350 nM, 675 nM, 338 nM and 170 nM for the 7NP2 scFv. No regeneration of the SA chip was performed between each run, scFvs were left to detach from the antigen. KD measurements were assessed using the BIAevaluation 3.2 software.

Kd: 130 nM
B1: anti-FAP antibody C5 in scFv format (scFv)
scFv: [about 100 residues not given here]RLAWFDYWGQGTLVTVSSGGGGSGGGGSGGGGEIVLTQSPGTLSLSPGERATLSCRASQSVSSSYLAWYQQKPGQAPRLLIYGASSRATGIPDRFSGSGSGTDFTLTISRLEPEDFAVYYCQQSGKGPLTFGQGTKVEIK
notes: The monomeric scFv was used in BIAcore; also called C5 scFv; scFv(C5)
